Reference: PubChem BioAssay AID1030 (National Center for Advancing Translational Sciences (NCATS), 2008)
Screen size: about 220,000 compounds; about 16,000 (7.3%) were called active. The inconclusive results got no clear call from the source; some entries with a clear call stand among them for comparison. The call rests on the fitted dose curve; in most records, active means well fitted inhibition curve with a large enough effect (not every such curve was filed as active); inconclusive means small, poorly fitted or top-dose-only effect, or another doubt; inactive means no such curve, though single readings can be large or run the other way. No potency is given beside an inconclusive call; the fits are too rough.

The compounds below were run against Aldehyde dehydrogenase 1A1 (Homo sapiens) (UniProt P00352) (assay: qHTS Assay for Inhibitors of Aldehyde Dehydrogenase 1 (ALDH1A1)). Settings: Purified ALDH1A1, NADH fluorescence, propionaldehyde substrate; series mostly up to 75.3 µM; activity, negative = inhibition: at the top concentration.
UniProt P00352, sequence (P00352 whole entry, looked up): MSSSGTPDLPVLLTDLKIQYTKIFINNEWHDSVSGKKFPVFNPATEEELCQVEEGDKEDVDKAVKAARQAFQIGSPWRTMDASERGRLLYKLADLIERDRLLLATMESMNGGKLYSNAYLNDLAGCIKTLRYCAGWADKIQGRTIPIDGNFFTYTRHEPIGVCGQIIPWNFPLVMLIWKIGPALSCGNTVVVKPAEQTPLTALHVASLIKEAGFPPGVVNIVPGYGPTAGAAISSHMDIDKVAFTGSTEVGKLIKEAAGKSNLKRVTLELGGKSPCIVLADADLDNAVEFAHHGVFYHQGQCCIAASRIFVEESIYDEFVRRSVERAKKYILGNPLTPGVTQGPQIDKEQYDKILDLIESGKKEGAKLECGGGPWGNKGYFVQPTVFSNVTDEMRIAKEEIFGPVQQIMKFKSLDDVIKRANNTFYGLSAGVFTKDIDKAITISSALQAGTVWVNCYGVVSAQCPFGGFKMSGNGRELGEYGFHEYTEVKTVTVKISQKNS
Potency means the concentration at half of the fitted maximal effect; tags describe the fitted curve by direction and shape.
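Wherever activity, negative = inhibition is given: plate controls were no enzyme wells and a reference inhibitor.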

Row | SMILES | Potency | activity, negative = inhibition
1 | O=C(COC(=O)/C=C/c1ccc(Br)o1)NCCCN1CCCC1=O | inconclusive [inhibitor, single point] | 
2 | CCOC(=O)CCCCC(=O)c1[nH]c(=O)[nH]c1CSc1nnc2c3ccccc3n(C(C)C)c2n1 | active: 12.6 µM | 
3 | O=C(COc1ccc(Cl)cc1)NCc1nnc(SCC(=O)Nc2ccc3c(c2)OCCO3)o1 | inconclusive [inhibitor, single point] | 
4 | COc1ccc(-c2nc3cnc(N(C)C)nc3n(CCc3ccccc3)c2=O)cc1 | inconclusive [inhibitor, partial curve] | 
5 | CCOC(=O)c1c(NC(=O)C(C)Sc2cccc[n+]2[O-])sc2c1CCN(Cc1ccccc1)C2 (stereo not given) | inconclusive [inhibitor, single point] | 
6 | O=C(Nc1ccc2c(c1)OCCO2)C1CCCN1S(=O)(=O)c1ccc(Cl)cc1 (stereo not given) | inconclusive [inhibitor, single point] | 
7 | O=C(NCc1ccco1)C1CCN(c2ccc(S(=O)(=O)N3CCOCC3)cc2[N+](=O)[O-])CC1 |  | inactive: 3.96%
8 | CCOc1ccccc1-n1c(C)cc(C=O)c1C | inconclusive [inhibitor, single point] | 
9 | Cc1ccn2cc(C34CC5CC(CC(C5)C3)C4)nc2c1 |  | inactive: -8.36%
10 | CCOc1ccc2[nH]c(=O)c(CN(Cc3ccco3)C(=O)c3ccc(Br)cc3)cc2c1 | active: 4.47 µM | 
11 | CS(=O)(=O)Nc1ccc(C2=NN(C(=O)c3ccco3)C(c3ccc(F)cc3)C2)cc1 (stereo not given) | inconclusive [inhibitor, partial curve] | 
12 | CCOC(=O)C1=C(CN2CCCCCC2)NC(=O)NC1c1cccc([N+](=O)[O-])c1 (stereo not given) | inconclusive [inhibitor, single point] | 
13 | COc1ccc(-c2nc3cnc(N4CCOCC4)nc3n(CCC#N)c2=O)cc1 | inconclusive [inhibitor, partial curve] | 
14 | CCOC(=O)c1c(C2COc3ccccc3O2)csc1NC(=O)c1ccccc1 (stereo not given) | inconclusive [inhibitor, partial curve] | 
15 | Cc1ccc(N=Nc2c(O)c3ccccc3[nH]c2=O)c(S(=O)(=O)N(C)C)c1 | active: 14.1 µM | 
16 | COc1cc(CO)ccc1Oc1nnnn1-c1ccc(C(N)=O)cc1 | inconclusive [inhibitor, single point] | 
17 | CC(=O)c1c(O)ccc2c(-c3ccccc3)cc(=O)oc12 | inconclusive [inhibitor, single point] | 
18 | COc1cccc(CNn2cn[nH]c2=S)c1OCc1ccccc1 | inconclusive [inhibitor, single point] | 
19 | Cc1cccc(NC(=O)/C(C#N)=C/c2ccc(Sc3ccccc3)o2)c1C |  | inactive: 6.38%
20 | CS(=O)(=O)c1ccc(C(=O)NCCN2C(=O)S/C(=C\c3cccnc3)C2=O)cc1[N+](=O)[O-] | inconclusive [inhibitor, single point] | 
21 | COc1ccc(Cl)cc1NC(=O)NCCCl | inconclusive [inhibitor, partial curve] | 
22 | COC(=O)c1c[nH]n2c(=O)c(Cl)c(C)nc12 |  | inactive: -4.23%
23 | CN(Cc1nc2ccc(F)cc2[nH]1)Cc1nc(CC2CC2)no1 |  | inactive: -1.51%

Row | SMILES | Potency | activity, negative = inhibition
24 | COc1ccc([N+](=O)[O-])cc1NC(=S)NC(NC(=O)C(c1ccccc1)c1ccccc1)C(Cl)(Cl)Cl (stereo not given) | active: 20 µM | 
25 | Cc1ccccc1NC(=O)c1cccc(S(=O)(=O)Oc2ccc([N+](=O)[O-])cc2)c1 |  | inactive: -11.6%
26 | Cc1cc(Cl)ccc1N=c1ssnc1Cl | active: 1.26 µM | 
27 | O=C(/C=C1\SC(=O)N(CC(=O)Nc2ccc(Cl)cc2)C1=O)Nc1ccc(F)cc1 |  | inactive: 10.6%
28 | N=C(c1cccc([N+](=O)[O-])c1)N1CCCCCC1 |  | inactive: 5.31%
29 | COc1ccc(/C=C/C(=O)OCC(=O)NCC2CCCO2)cc1 (stereo not given) | inconclusive [inhibitor, single point] | 
30 | O=C(Nc1ccccc1N1CCN(c2ccccc2)CC1)c1ccccc1F | inconclusive [inhibitor, single point] | 
31 | O=c1oc2ccccc2c(NCCc2ccccc2)c1[N+](=O)[O-] | inconclusive [inhibitor, partial curve] | 
32 | CCOC(=O)C1(CCCc2ccccc2)CCN(C2CCN(C(C)=O)CC2)CC1 | inconclusive [inhibitor, single point] | 
33 | Cc1ccccc1Oc1nc2c(C)cccn2c(=O)c1/C=C(\C#N)C(=O)NC1CCS(=O)(=O)C1 (stereo not given) | inconclusive [inhibitor, full curve] | 
34 | Cc1nnc(NC(=O)C2C3C=CC(O3)C2C(=O)O)s1 (stereo not given) | active: 28.2 µM | 
35 | O=C1Nc2ccccc2S/C1=C/NCc1ccccc1Cl | active: 4.47 µM | 
36 | CC(NC(=O)c1ccccc1N)c1ccccc1 (stereo not given) | inconclusive [inhibitor, partial curve] | 
37 | COc1ccc(CCNC(=O)COc2ncnc3cc([N+](=O)[O-])ccc23)cc1 | inconclusive [inhibitor, partial curve] | 
38 | CC(=O)Nc1ccc(NC(=O)COC(=O)c2ccccn2)cc1 |  | inactive: -20.5%
39 | O=C(COC(=O)c1c2c(nc3ccccc13)CCN(Cc1ccccc1)C2)Nc1c(F)cccc1F | inconclusive [inhibitor, single point] | 
40 | COC(=O)c1ccc(NC(=O)c2cccc(OC)c2)cc1 | inconclusive [inhibitor, partial curve] | 
41 | O=C1NCCN1CCNS(=O)(=O)c1ccc(F)cc1 | inconclusive [inhibitor, single point] | 
42 | Cc1ccc(NC(=O)c2ccc(CSc3ccccn3)cc2)c(O)c1 |  | inactive: 0.654%
43 | CC1=C(C(=O)N2CCCC(CCC(=O)NCc3ccc(F)c(F)c3)C2)OCCO1 (stereo not given) | inconclusive [inhibitor, single point] | 
44 | Cc1cccc(OCCC(=O)NCC(=O)Nc2cccc(C)c2C)c1 |  | inactive: -2.13%
45 | COc1cc(-c2nc3ccc(C)cn3c2Nc2ccc3c(c2)OCCO3)ccc1O | inconclusive [inhibitor, partial curve] | 
